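Compound exposure: 48 hours, 5 concentrations, 96-well plates. The concentration for 50% growth inhibition is given as GI50.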 Active and inactive are the calls of the source. Cut-off read from the data, not from the text of the source: active = GI50 up to about 1.1 µM and inactive = higher.
Test system: NCI-H322M
Experiment: NCI anticancer screen, dose series, 48 h

For `CNC(=O)OCc1nc(SC(C)C)n(C)c1COC(=O)NC`, which GI50 is on record?
Its GI50 is inactive: > 100 µM.

How did the GI50 turn out when `Cc1cc(C)c(C(=O)O)c(SSc2cc(C)cc(C)c2C(=O)O)c1` was run?
The GI50 was inactive: > 100 µM.

With `c1cncc(CNc2ncn[nH]2)c1` as the compound, how does the GI50 read?
Its GI50 is inactive: > 100 µM.

For `c1cncc(-c2cc(-c3cc(-c4cccnc4)[nH]n3)n[nH]2)c1`, which GI50 is on record?
Its GI50 is inactive: > 100 µM.

`COc1cc2c(cc1OC)-c1cc3cc(OC)c(OC)cc3c(=O)n1CC2` was tested. Which GI50 did it give?
The GI50 was inactive: 5.51 µM.

With `O=c1c2ccccc2c2ccccc2c(=O)n1-c1cc2c3ccccc3ccc2c2ccccc12` as the compound, how does the GI50 read?
Its GI50 is inactive: > 100 µM.

For `N=C(N)N/N=C(/c1ccccc1)c1ccc(O)cc1O`, which GI50 is on record?
Its GI50 is inactive: 32.4 µM.

For `O=C1CCCCC1S(=O)(=O)c1ccccc1` (stereo not given), which GI50 is on record?
Its GI50 is inactive: > 100 µM.

For `NCCNC(=S)S`, which GI50 is on record?
Its GI50 is inactive: > 100 µM.

With `Clc1ccc(CSCc2ccc(Cl)cc2Cl)c(Cl)c1` as the compound, how does the GI50 read?
The GI50 was inactive: > 100 µM.

For `Cc1ncc(CO)c(/C=N/CCCCCC/N=C/c2c(CO)cnc(C)c2O)c1O`, which GI50 is on record?
Its GI50 is inactive: > 56.9 µM.

With `CSc1nc(Cl)c2c(n1)Sc1nc3ccccc3n1N=C2` as the compound, how does the GI50 read?
The GI50 was inactive: > 100 µM.

`Cc1cc(=O)nc(Sc2ccc([N+](=O)[O-])cc2[N+](=O)[O-])[nH]1` was tested. Which GI50 did it give?
The GI50 was inactive: > 52.2 µM.

For `CN1C(=O)C(=CNc2ccc(Cl)cc2Cl)C(=O)N(C)C1=O`, which GI50 is on record?
Its GI50 is inactive: > 100 µM.

For `CN(C)Cc1cc(C(C)(C)C)cc(CNC2CCCCC2)c1O`, which GI50 is on record?
The GI50 was inactive: 18 µM.

With `Cc1nc(C)c(Cc2ccccc2)o1` as the compound, how does the GI50 read?
The GI50 was inactive: > 100 µM.

With `Sc1nn2c(COc3cccc(OCc4nnc5sc(S)nn45)c3)nnc2s1` as the compound, how does the GI50 read?
The GI50 was inactive: > 100 µM.

How did the GI50 turn out when `O=c1[nH]c(S)nc2c1sc(=S)n2-c1ccccc1` was run?
The GI50 was inactive: > 100 µM.

Which GI50 does the source give for `Nn1c(Cc2ccccc2)n[nH]c1=O` here?
Its GI50 is inactive: > 100 µM.

With `CCCCCCCCCCC(O)C1CCC(C(O)CCC(O)C2CCC(CCCCCCC[C@H](O)CC3=C[C@@H](C)OC3=O)O2)O1` (stereo not given in full) as the compound, how does the GI50 read?
The GI50 was inactive: > 100 µM.

How did the GI50 turn out when `CCN(CC)C(=S)SC(C(=O)Nc1nnc(-c2ccc(Cl)cc2)o1)c1ccccc1` (stereo not given) was run?
Its GI50 is inactive: 18.5 µM.

`COC(=O)C(Cc1c(C2Nc3ccccc3C2CC(NC(=O)CNC(C)=O)C(=O)OC)[nH]c2ccccc12)NC(=O)CNC(C)=O` (stereo not given) was tested. Which GI50 did it give?
The GI50 was inactive: > 100 µM.

For `CC12C3CC4C5CC(C(C53)[C@@H]1NCc1ccccc1)C42` (stereo not given in full), which GI50 is on record?
Its GI50 is inactive: > 100 µM.

For `C[C@@H](c1ccccc1)N(CC#N)[C@H]1CCC[C@]1(O)/C=C/c1ccc2c(c1)OCO2`, which GI50 is on record?
Its GI50 is inactive: > 25 µM.

For `CCOP(=O)(OCC)C(Nc1ccc(Cl)cc1)c1ccc(F)cc1` (stereo not given), which GI50 is on record?
The GI50 was inactive: 27.8 µM.

Which GI50 does the source give for `Oc1ccc(Br)cc1/C=N/c1ccc(/N=C/c2cc(Br)ccc2O)cc1` here?
Its GI50 is inactive: > 100 µM.

How did the GI50 turn out when `Cc1ccc(-c2nc3ccccc3c(=O)n2NCC2(O)OCC(O)C(O)C2O)cc1` (stereo not given) was run?
The GI50 was inactive: > 100 µM.

How did the GI50 turn out when `Cc1ccc(NC(=O)COC(=O)c2cccc3c(=O)c4ccccc4[nH]c23)cc1` was run?
Its GI50 is inactive: 44 µM.

How did the GI50 turn out when `O=C1C2=C(CC3C(C2)C3(Br)Br)C(=O)C2=C1CC1C(C2)C1(Br)Br` (stereo not given) was run?
Its GI50 is inactive: > 100 µM.

With `CCOC(=O)/C=C(/C(=O)OCC)n1ccc(=O)n(Cc2cn(CCCCOC(C)=O)nn2)c1=O` as the compound, how does the GI50 read?
The GI50 was inactive: > 100 µM.

For `COC1OC(C)C(OC(=O)C(C)(C)C)C(OS(=O)(=O)c2ccc(C)cc2)C1OS(=O)(=O)c1ccc(C)cc1` (stereo not given), which GI50 is on record?
The GI50 was inactive: > 100 µM.

Which GI50 does the source give for `Cc1cc(-c2nc3ccccc3s2)ccc1NC(=O)[C@@H](N)CCCCN` here?
Its GI50 is inactive: 10.7 µM.

How did the GI50 turn out when `CCCCOC(=O)C1CN2C(=NC1(C(F)(F)F)C(F)(F)F)Sc1ccccc12` (stereo not given) was run?
Its GI50 is inactive: 90.6 µM.

`C/C(=N\N(C)C)C(CN1CCCCC1)C(c1ccccc1)c1c(O)c2ccccc2oc1=O` (stereo not given) was tested. Which GI50 did it give?
The GI50 was inactive: > 100 µM.

For `O=C(COc1ccc(OCC(=O)N2C(=O)CC/C2=N\c2ccc(Cl)cc2)cc1)N1C(=O)CS/C1=N\c1ccc(Cl)cc1`, which GI50 is on record?
The GI50 was inactive: > 100 µM.

Which GI50 does the source give for `COc1cc([C@@H]2c3cc4c(cc3[C@@H](NCc3cccc(C#N)c3)C3COC(=O)[C@@H]32)OCO4)cc(OC)c1O` (stereo not given in full) here?
Its GI50 is inactive: 13.9 µM.

For `CCOP(=O)(OCC)/C(C#N)=C/c1cccn1C`, which GI50 is on record?
The GI50 was inactive: > 100 µM.

How did the GI50 turn out when `c1ccc2c(c1)nnn2C1CCCCO1` (stereo not given) was run?
The GI50 was inactive: > 100 µM.

With `COc1cc(S(=O)(=O)Nc2nc(-c3ccc(N4C(=O)CSC4c4cccs4)cc3)cs2)ccc1Cl` (stereo not given) as the compound, how does the GI50 read?
Its GI50 is inactive: > 100 µM.

`CCOC(=O)NC(=O)c1cn(C2OC(COC(=O)CCCCCCCCC(=O)OCC3OC(n4cc(C(=O)NC(=O)OCC)c(=O)[nH]c4=O)C4OC(C)(C)OC34)C3OC(C)(C)OC32)c(=O)[nH]c1=O` (stereo not given) was tested. Which GI50 did it give?
The GI50 was inactive: > 100 µM.

Which GI50 does the source give for `O=C1CSC(c2ccccc2[N+](=O)[O-])N1c1ccc(-c2ccc(-n3c(-c4ccccc4)nc4ccccc4c3=O)cc2)cc1` (stereo not given) here?
The GI50 was inactive: > 100 µM.

Which GI50 does the source give for `CC(C)COP(C)(=O)C(N)(C(F)(F)F)C(F)(F)F` (stereo not given) here?
Its GI50 is inactive: > 100 µM.

`CCOC(=O)c1sc2c(c1OC(=O)c1ccccc1)c(=O)n(-c1ccccc1)c(=S)n2-c1ccccc1` was tested. Which GI50 did it give?
The GI50 was inactive: 94.4 µM.

For `N#C/C(=C\c1ccccc1)C(=O)Nc1nnc(-c2ccccc2)o1`, which GI50 is on record?
The GI50 was inactive: 42.7 µM.

Which GI50 does the source give for `CC(=O)C1=CN=C2C(=O)N(c3ccccc3)N(C)C12C` (stereo not given) here?
The GI50 was inactive: > 100 µM.

With `O=C1CC(NC(=O)C(F)(F)F)c2c(Br)sc(N3CCNCC3)c21` (stereo not given) as the compound, how does the GI50 read?
Its GI50 is inactive: > 100 µM.

How did the GI50 turn out when `Nc1nc(N)c2c(n1)NC(c1ccccc1)CC(/C=C/c1ccc(Cl)cc1)=N2` (stereo not given) was run?
The GI50 was inactive: 14.6 µM.

Which GI50 does the source give for `Cn1c(-c2ccc(/N=N/Nc3ccc(-c4n[nH]c(=S)n4C)cc3)cc2)n[nH]c1=S` here?
The GI50 was inactive: 42.8 µM.

`NNc1nc2ccccc2c(=O)n1NC(=O)C(=O)Nc1cccc(C(F)(F)F)c1` was tested. Which GI50 did it give?
The GI50 was inactive: > 100 µM.

How did the GI50 turn out when `COc1cc2c3c(cc(Cl)nc3c1OC)C(O)(CC(C)=O)C(=O)N2` (stereo not given) was run?
Its GI50 is inactive: > 100 µM.

How did the GI50 turn out when `Nc1ncnc2c1ncn2C1CCC(COS(N)(=O)=O)C1` (stereo not given) was run?
Its GI50 is inactive: > 100 µM.

For `C1CCN(C2OC3C(COC3N3CCCCC3)OC2OC2CCO[C@@H]2N2CCCCC2)CC1` (stereo not given in full), which GI50 is on record?
The GI50 was inactive: > 100 µM.

Which GI50 does the source give for `C=CN1CCN(c2ccccc2)P1(=O)Oc1ccccc1` (stereo not given) here?
Its GI50 is inactive: > 100 µM.

`O=c1oc2ccc3ccccc3c2cc1-c1cn2ccsc2n1` was tested. Which GI50 did it give?
Its GI50 is inactive: > 100 µM.

With `Cc1cc(Br)cc(C)c1NC(=O)C(=O)Nn1c(S)nc2ccccc2c1=O` as the compound, how does the GI50 read?
The GI50 was inactive: > 100 µM.

`CC(=O)NNc1nc(C)c(C(=O)NNC(=O)C(=O)Nc2c(Cl)cc([N+](=O)[O-])cc2Cl)s1` was tested. Which GI50 did it give?
The GI50 was inactive: 47.1 µM.

With `COC(=O)[C@@H]1CN(C(C)=O)C(=O)N1` as the compound, how does the GI50 read?
Its GI50 is inactive: > 100 µM.

`Cc1ccccc1/C=C/c1csnn1` was tested. Which GI50 did it give?
The GI50 was inactive: > 100 µM.

Which GI50 does the source give for `COc1ccc2c(c1)/C(=C\c1c(-c3ccccc3)nc3n1CCS3)C(=O)N2` here?
Its GI50 is inactive: 16.1 µM.

Which GI50 does the source give for `O=C(O)CO[C@@]12C#C/C=C\C#C[C@@H]3N(C(=O)Oc4ccccc4)c4ccccc4[C@]14O[C@@]34CCC2` here?
The GI50 was inactive: 82.8 µM.

How did the GI50 turn out when `C[N+](C)(C)CC(=O)N/N=C(\Cc1nc2ccc([N+](=O)[O-])cc2nc1O)C(=O)Nc1nc2ccc([N+](=O)[O-])cc2s1` was run?
The GI50 was inactive: 76.4 µM.

With `O=C1CCCCC/C1=C\c1ccc([N+](=O)[O-])cc1` as the compound, how does the GI50 read?
Its GI50 is inactive: 33 µM.

For `[N-]=[N+]=NC(CI)c1cn([C@H]2C[C@H](O)[C@@H](CO)O2)c(=O)[nH]c1=O` (stereo not given in full), which GI50 is on record?
Its GI50 is inactive: > 100 µM.

Which GI50 does the source give for `Cc1cc(C)c2c(c1)C1=NCCN1C2(O)c1ccc(Cl)cc1` (stereo not given) here?
The GI50 was inactive: 4.5 µM.

`O=C(O)CCCNS(=O)(=O)c1ccccc1` was tested. Which GI50 did it give?
Its GI50 is inactive: > 100 µM.
